# Laboratory results published in publication PMC12040169 (PLOS Biology, 2025).
# The list shows a part of the results.
# System: T1, C. trachomatis L2/434/Bu expressing GFP (CTL2-GFP)
# T1 construct: L2/434/Bu GFP intracellular growth in HeLa cells
# Parameters: species or system HeLa; C. trachomatis total inclusion area by high-content imaging, normalised to DMSO
# Conditions: total inclusion area; 28.5 h, 10 µM; inhibitor
# Outline: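 High-content images of fixed, Hoechst-stained infected cultures supply inclusion area and count (growth) plus nuclei number (viability), complementing bulk GFP/resorufin fluorescence. MIC determination is unchanged from the primary assay.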
row,SMILES,% of control remaining
1,O=C(O)C1CSC(c2cc3ccccc3o2)N1 (stereo not shown) [CBK019502],71.4641
2,C#CCNS(=O)(=O)c1ccc(C(=O)Nc2ccnn2Cc2ccccc2)cc1 [CBK297727],103.23
3,COCCc1noc(CC2CCN(c3ncc(Cl)cn3)CC2)n1 [CBK304172],78.8428
4,Cc1cc(S(=O)(=O)N(CCC#N)c2ccccc2)c(C)cc1Cl [CBK043618],107.464
5,O=C(O)C1CCN(C(=O)c2ccc3nsnc3c2)CC1 [CBK057344],91.933
6,COc1ccc(NC(=O)C2CN(S(=O)(=O)c3ccccc3)CCN2S(=O)(=O)c2ccccc2)cc1 (stereo not shown) [CBK262500],76.0047
7,CN(C)C(=O)c1cccc(CNc2ncnc3c2cnn3CCC#N)c1 [CBK305955],37.8706
8,CCOC(=O)c1ccc(N/C=C(\C#N)c2nc(-c3cc4ccccc4oc3=O)cs2)cc1 [CBK262356],101.527
9,CN(C)CC(=O)N1CCN(c2cncc(-c3ccc(O)cc3)n2)CC1 [CBK126921T],96.7959
10,NC1=NNC2=C(c3cccc(Cl)c3)NNN12 [CBK093661],78.7116
11,Cc1c(C(=O)NC(C)c2cc3ccccc3o2)cnn1C (stereo not shown) [CBK283074],128.703
12,O=C(c1ccc(F)cc1)N1C[C@H](c2ccsc2)[C@H]2CN(Cc3cccs3)CC[C@H]21 [CBK285636],72.0078
13,O=C(CSc1ncnc2c1oc1ccccc12)NC1CCCCC1 [CBK287396],122.377
14,COc1ccccc1C1(NC(=O)CCn2nccc2C)CCCC1 [CBK283628],98.736
15,COc1ccc(CNC(=O)c2nc(-c3ccccn3)no2)cc1 [CBK287877],88.9086
16,O=C(Nc1nc2ccccc2s1)c1cc([N+](=O)[O-])ccc1Cl [CBK072428],97.8349
17,Cc1ccc(SCc2ccc(C(=O)Nc3ccccc3C(=O)N3CCCC3)cc2)cc1 [CBK268217],101.051
18,CC(C)Nc1nccnc1-c1cccnc1 [CBK037054],102.729
19,O=C(CCS(=O)(=O)c1nc(-c2ccccc2)cc(C(F)(F)F)n1)Nc1ccc(Cl)cc1Cl [CBK268717],73.8089
20,Fc1ccc(NC(=S)NNC(=S)Nc2cccc3ccccc23)c(F)c1 [CBK266982],103.255
21,CCOc1cccc(-c2cn3ccnc3c(NC3CC3)n2)c1 [CBK066736],117.993
22,FC(F)(F)c1ccc(Sc2cccs2)nc1 [CBK115236],90.5624
23,CC(=O)NC(Cc1c[nH]c2ccccc12)C(=O)N(C)Cc1cnn(C)c1 (stereo not shown) [CBK305274],72.789
24,CC1CCc2c(sc(NC(=O)c3cnccn3)c2C(N)=O)C1 (stereo not shown) [CBK265466],69.2055
25,CS(=O)(=O)N1CCCCCC1c1cc(-c2cccs2)on1 (stereo not shown) [CBK284670],83.4369
26,COc1ccccc1C(=O)N1CCN(C(=O)CN2CCCC2)CC1 [CBK024836],67.439
27,CCn1cc(S(=O)(=O)Nc2cccc(CCCC(=O)O)c2)cn1 [CBK304717],82.5514

row,SMILES,% of control remaining
1,O=C(NCc1ccccc1)c1ccno1 [CBK200197],97.5573
2,Cc1cc(CNC(=O)N2CCCCC2CO)no1 (stereo not shown) [CBK156160],93.713
3,CCN(CC)C(=O)C1CCCN(C(=O)NCc2ccc(Cl)c(Cl)c2)C1 (stereo not shown) [CBK156119],78.4122
4,CCc1cnc(CN(C)C2CCN(CC(=O)Nc3cccnc3)C2)o1 (stereo not shown) [CBK305358],76.8429
5,N#C/C(=C\c1cn(CCC(N)=O)c2ccccc12)Sc1nc2ccccc2s1 [CBK267897],74.3028
6,COCCCn1c(N)c(C(=O)NCC(C)C)c2nc3ccccc3nc21 [CBK126495],100.979
7,CC(=O)[C@H]1C[C@@H](CC(=O)Nc2ccc(Cl)nc2)C1(C)C [CBK091338],94.1615
8,Cn1nc(NC(=O)c2ccco2)c2c(F)cccc21 [CBK057774],64.5778
9,CCOC(=O)c1c(NC(=O)Cn2nc([N+](=O)[O-])c(Cl)c2C)sc2c1CCC(C)C2 (stereo not shown) [CBK263054],101.13
10,O=C(CC12CC3CC(CC(C3)C1)C2)Nc1nc[nH]n1 [CBK288208],75.4275
11,O=C1CN(C(=O)Cn2c(-c3cccs3)cc3cccnc32)CCN1 [CBK282543],120.477
12,N=c1n(CC(=O)O)c2ccccc2n1Cc1ccccc1 [CBK286531],114.002
13,O=C(NCCCn1ccnc1)c1cnn2c(C(F)(F)F)cc(-c3cccs3)nc12 [CBK263060],106.767
14,O=C(O)c1ccccc1N1C(=O)c2ccc(Oc3ccc(Oc4ccc5c(c4)C(=O)N(c4ccccc4C(=O)O)C5=O)cc3)cc2C1=O [CBK261186],105.829
15,CCOc1cccc(-c2cncc(N(C)CCN(C)C)n2)c1 [CBK065977],118.762
16,Fc1cccc(COc2nc3ccccc3n3nnnc23)c1 [CBK288198],89.7675
17,CN(C)C(=O)c1cc(-c2cccc(N(C)C)c2)cnc1NCC1CC1 [CBK076333],116.965
18,O=C1CNC(=O)C2(C/C=C/C[C@H]3COCC[C@@H]3N1)CCN(Cc1ccc(Cl)cn1)CC2 [CBK292132],102.894
19,CCn1cnnc1CNC(=O)N1CCCN(Cc2cccs2)CC1 [CBK305882],51.8365
20,Cc1nc(NS(=O)(=O)/C=C/c2ccccc2)sc1C(=O)O [CBK045553],95.6433
21,CCOC(=O)C(NC(=O)c1cc[nH]c(=O)c1)c1cccc(C)c1C (stereo not shown) [CBK304174],28.4972
22,Cn1c(CO)nnc1[C@H]1C[C@@H](NC(=O)CCc2ccc(F)cc2F)C1 [CBK306796],47.2722
23,CCCN1C(=O)[C@@H]2[C@@H](CCN2C(=O)C(=O)O)N(Cc2cccs2)C1=O [CBK289277],110.757
24,CCOc1ccc2[nH]c(C(=O)N(C)CCN3CCCCC3)c(C)c2c1 [CBK282699],104.112
25,CN(Cc1ccccc1)CC(O)c1ccc2c(c1)CCCN2C(=O)c1ccccc1F (stereo not shown) [CBK286278],92.6087
26,COc1ccc(S(=O)(=O)Nc2cccc(C(=O)Nc3ccc(F)cc3)c2)cc1OC [CBK038982],24.5344
27,COc1cc(C(=O)N2CCC3(CC2)CC(=O)c2cc(CN4CCOCC4)ccc2O3)cc(OC)c1C [CBK169182],106.596

row,SMILES,% of control remaining
1,c1cncc(CCNc2nccnc2-c2cccnc2)c1 [CBK037380],74.6646
2,COc1cc(Nc2cc(-c3ccc4c(c3)OCO4)ncn2)cc(OC)c1OC [CBK090704],95.5666
3,CN1CCCC(Cc2cc(-c3ccccc3)no2)(C(=O)N(C)C)C1 (stereo not shown) [CBK281674],69.3362
4,O=[N+]([O-])c1ccc(-c2nc(NCc3cccnc3)c3ccccc3n2)cc1 [CBK264788],96.0914
5,COc1ccc(C(=O)NC(CC(=O)O)c2ccc(OC)cc2)cc1 (stereo not shown) [CBK266188],119.651
6,COc1ccc(CCNC(=O)/C=C/C(=O)O)cc1OC [CBK265373],105.698
7,O=C(c1ccccc1F)N1CCC(c2nnc3n2CCCCC3)CC1 [CBK284628],93.0653
8,CN1CCC(N(C)Cc2coc3ccccc3c2=O)CC1 [CBK261578],83.4669
9,O=C(O)c1cccc(N2N=C(c3ccccc3)CC2=O)c1 [CBK286966],89.6297
10,Cc1cc(CNS(=O)(=O)c2cccc3nonc23)no1 [CBK062263],92.7852
11,O=C(c1cccnc1)N1CCN(S(=O)(=O)c2ccc([N+](=O)[O-])cc2)CC1 [CBK264300],99.0304
12,C=CCNC(=O)Cn1c(-c2ccc(OC)cc2)cc2cccnc21 [CBK285363],83.9769
13,CC(C)CC(=O)NCCn1nc(-c2ccccc2F)cc1CN(C)C [CBK282005],121.805
14,CCCS(=O)(=O)Nc1ccc(=O)n2c1[C@@H]1C[C@@H](CN(C(=O)c3ccc(OC)cc3)C1)C2 [CBK288711],113.902
15,O=C(NCCc1ccccn1)c1ccc(Cl)cc1Cl [CBK015946],65.0125
16,CCOC(=O)c1cc(S(=O)(=O)NC2CCN(C(=O)OCC)CC2)cn1C [CBK304665],92.7498
17,O=C(O)c1cn(C2CC2)c2cc(N3CCN(C(=O)C4CCCO4)CC3)c(F)cc2c1=O (stereo not shown) [CBK297139],11.0211
18,Cn1nc(-c2ccc(F)cc2)cc1[C@H]1CN2CC[C@H]1C[C@@H]2CNS(C)(=O)=O [CBK289109],99.1262
19,CC(C)(C)c1cc(C(=O)N2CCn3cc(C(F)(F)F)nc3C2)[nH]n1 [CBK284748],92.9577
20,CCCN(c1nc(C)c(Br)c(OC)n1)S(=O)(=O)c1ccc(C)cc1 [CBK028072],8.208
21,OC(CN1CCC2(CC1)CC(O)c1cc(F)ccc1O2)c1ccc(-c2ccccc2)cc1 (stereo not shown) [CBK286331],51.7201
22,COc1ccccc1N1CCN(C(=O)CN2C(=O)c3ccccc3C2=O)CC1 [CBK091501],92.7889
23,O=C(CN1C2CCC1CC(O)(c1ccco1)C2)N1c2ccccc2CCc2ccccc21 (stereo not shown) [CBK286168],113.956
24,CC(=O)NCC12CC3CC(C1)CC(C(=O)O)(C3)C2 [CBK286768],71.4532
25,CC1CCc2c(sc(NC(=O)c3cc(-c4cccnc4)nc4ccc(Cl)cc34)c2C(N)=O)C1 (stereo not shown) [CBK267762],97.4826
